Measurements taken from PubChem BioAssay AID360 (National Center for Advancing Translational Sciences (NCATS), 2006).
Out of some 48,000 compounds screened, about 550 (1.1%) were called active. Inconclusive results (about 4%) are left out. Rule as the data show it: active = potency below about 15 µM; inconclusive = mostly about 16 µM to 33 µM; inactive = weaker than that. This is one part of the list.

The molecules below were run against Lysosomal acid glucosylceramidase (Homo sapiens) (UniProt P04062) (assay: Glucocerebrosidase). Details: purified enzyme, resorufin glucoside fluorescence (screen aimed at inhibitors), 20 min.
Summary of the method: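 Normal human glucocerebrosidase (0.2 nM final) was assayed with resorufin β-D-glucopyranoside (30 uM final) in 50mM citric acid/KH2PO4, 10mM sodium taurocholate, 0.01% tween-20, pH 5.9. Compounds were titrated; fluorescence (Ex 548, Em 600) read after 20 min at RT.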
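Also: the screen sought inhibitors.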
Potency is read from the fitted curve at half-maximal effect.

UniProt P04062, sequence (P04062 whole entry, looked up): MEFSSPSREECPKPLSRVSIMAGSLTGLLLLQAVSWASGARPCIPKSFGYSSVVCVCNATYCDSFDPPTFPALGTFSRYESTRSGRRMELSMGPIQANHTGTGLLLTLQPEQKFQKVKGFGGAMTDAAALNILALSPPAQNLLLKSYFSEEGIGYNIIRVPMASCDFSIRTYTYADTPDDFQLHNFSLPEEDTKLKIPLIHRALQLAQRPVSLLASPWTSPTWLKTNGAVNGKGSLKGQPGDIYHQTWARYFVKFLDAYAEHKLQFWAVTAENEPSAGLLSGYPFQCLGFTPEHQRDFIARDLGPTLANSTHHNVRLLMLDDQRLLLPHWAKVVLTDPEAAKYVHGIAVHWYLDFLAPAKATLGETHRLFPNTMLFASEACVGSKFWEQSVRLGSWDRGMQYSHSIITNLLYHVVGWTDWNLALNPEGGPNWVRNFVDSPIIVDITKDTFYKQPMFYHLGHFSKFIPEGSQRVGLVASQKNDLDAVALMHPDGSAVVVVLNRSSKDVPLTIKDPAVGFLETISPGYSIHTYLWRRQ

Potency, inactive:
CC(=O)N1CCN(S(=O)(=O)c2ccc(C)cc2)C1C(C)C (stereo unspecified) > 76.9 µM
CN(C)c1nc(C(=O)OCCO)nc(N(C)C)n1 > 76.9 µM
CC1CCCCN1C(=O)C1CC(c2ccc(F)cc2)=NO1 (stereo unspecified) > 76.9 µM
O=C(CSc1nnc(-c2cccs2)o1)OC1CCCCC1 > 76.9 µM
Cc1ccc(S(=O)(=O)NC(=O)Nc2c(C)n(C)n(-c3ccccc3)c2=O)cc1 > 76.9 µM
N#Cc1nc(-c2ccco2)oc1N1CCOCC1 > 76.9 µM
CC(C)CC(OC(=O)c1cccs1)C(=O)NCc1ccco1 (stereo unspecified) > 76.9 µM
COC(=O)[C@@H](NC(=O)NC1CCCc2ccccc21)C(C)C (stereo partly specified) > 76.9 µM
O=C(O)c1ccc(S(=O)(=O)c2ccccc2)cc1 > 76.9 µM
CCCn1c(=O)c2ccccc2n2c(SCCOc3ccc(C)cc3)nnc12 > 76.9 µM
CCn1c2ccc(CC(=O)O)cc2c2cc(CC(=O)O)ccc21 > 76.9 µM
Cc1ccc2nc(N3CCN(C)CC3)c(C#N)cc2c1 > 76.9 µM
Cn1c(=O)c2c(nc(NCc3cccnc3)n2Cc2cccc(C(F)(F)F)c2)n(C)c1=O > 76.9 µM
COC(=O)c1ccc(C)c(NC(=O)c2nn(C)c(=O)c3ccccc23)c1 > 76.9 µM
COc1ccccc1NC(=O)N(Cc1ccc2c(c1)OCO2)Cc1nc2ccccc2c(=O)[nH]1 > 76.9 µM
COc1ccccc1CNC(=O)CCN1C(=O)COc2ccccc21 > 76.9 µM
CC(=O)c1ccc(N2CCN(C(=O)CCS(=O)(=O)c3ccc(C)cc3)CC2)cc1 > 76.9 µM
CC(C)NC(=O)c1ccccc1-c1nc(-c2ccccc2Cl)no1 > 76.9 µM
COc1ccccc1NC(=O)C1CC(=O)N(c2ccc(F)cc2)C1 (stereo unspecified) > 76.9 µM
CCOC(=O)[C@H]1CCC[C@@H](NS(=O)(=O)c2ccc(NC(C)=O)cc2)C1 > 76.9 µM
CCN(CCNC(=O)C1CCN(S(=O)(=O)CC)CC1)c1ccccc1 > 76.9 µM
O=C(COc1ccc2c(c1)C(=O)CC1(CCCCC1)O2)NCc1ccccn1 > 76.9 µM
CCc1nnc(NC(=O)CN2CCN(c3ccccc3OC)CC2)s1 > 76.9 µM
O=C(CCN1c2ccccc2Sc2ccccc21)OCC(=O)N1CCN(C(=O)c2ccco2)CC1 > 76.9 µM
O=C(CSc1nccn1-c1ccccc1)NCc1ccc2c(c1)OCO2 > 76.9 µM
CCNc1nc(NCC)n2c(SCc3nc4ccccc4c(=O)[nH]3)nnc2n1 > 76.9 µM
O=C1CCCC2=C1C(c1cn(-c3ccccc3)nc1-c1cccs1)c1c([nH]c(=O)[nH]c1=O)N2 (stereo unspecified)
CCOc1ccc(C(=O)C2CCN(CC(=O)Nc3ccccc3N3CCOCC3)CC2)cc1 > 76.9 µM
Cc1cc(NC(=O)CSc2nnc3c4c(C)c(C)sc4ncn23)no1 > 76.9 µM
COc1ccc(NC(=O)CN2CCN(c3ccccc3F)CC2)cc1 > 76.9 µM
CCOc1cc(C(=O)N(C)Cc2cc3ccccc3[nH]c2=O)cc(OCC)c1OCC > 76.9 µM
CCC1(C(=O)OC)NC(c2ccco2)C2C(=O)N(c3ccc(C)cc3)C(=O)C21 (stereo unspecified) > 76.9 µM
CC1CCc2ccc(F)cc2N1S(=O)(=O)c1cccs1 (stereo unspecified) > 76.9 µM
O=S(=O)(c1cccc2nsnc12)N1CCc2ccccc21 > 76.9 µM
Cc1c(C(=O)N2CCCCC2)sc(NC(=O)C2CC2)c1C#N > 76.9 µM
CCOc1ccc(NC(=O)Cn2nnc(-c3ccccc3NC(=O)C3CC3)n2)cc1 > 76.9 µM
c1csc(-c2csc(-c3cccs3)n2)c1 > 76.9 µM
O=C(NCc1cccnc1)c1ccc(CS(=O)(=O)Cc2ccc(Cl)cc2)o1 > 76.9 µM
CC(C)COc1cccc(C(=O)Nc2ccc(S(=O)(=O)N3CCOCC3)cc2)c1
CCOc1ccccc1NC(=O)CSc1nnnn1Cc1ccccc1 > 76.9 µM
CC1CCN(S(=O)(=O)c2ccc3[nH]cc(C(=O)NCCN4CCOCC4)c(=O)c3c2)CC1 > 76.9 µM
Cc1occc1C(=O)NCc1cccc(CNC(=O)c2ccoc2C)c1 > 76.9 µM
COc1cc2c(cc1OC)-c1nncn1C(C)(C)C2 > 76.9 µM
c1cc(-c2noc(CCC3CCCC3)n2)ccn1 > 76.9 µM
O=C(CSc1nc(O)cc(=O)[nH]1)N1CCCc2ccccc21 > 76.9 µM
CCOC(=O)CCCNC(=O)CN1C(=O)NC2(CCCCCC2)C1=O > 76.9 µM
CSc1nnc(-c2ccco2)c(-c2ccco2)n1 > 76.9 µM
CCc1cc(C(=O)OC)c(NC(=O)CCCC(=O)O)s1 > 76.9 µM
COc1ccc(NC(=O)CCc2nc(-c3ccc(C)cc3)no2)cc1Cl > 76.9 µM
COC(=O)CN1C(=O)C2(C(C#N)=C(N)Oc3cc(C)oc(=O)c32)c2ccccc21 (stereo unspecified) > 76.9 µM
O=C(O)CCn1[nH]c(=O)ccc1=O > 76.9 µM
O=C(CCCn1c(=O)[nH]c2ccsc2c1=O)N1CCN(Cc2ccc3c(c2)OCO3)CC1 > 76.9 µM
OC(COCc1ccccc1)CN1CCN(c2ccccc2F)CC1 (stereo unspecified) > 76.9 µM
CCOC(=O)CN(C(=O)Cn1nnc(-c2ccc(C)cc2)n1)C(CC)C(=O)NC1CCCC1 (stereo unspecified) > 76.9 µM
CC(C)(NCc1ccccc1Cl)C(=O)O > 76.9 µM
CC(=O)N1C(=O)C2(C(C#N)=C(N)Oc3cc(C)oc(=O)c32)c2ccccc21 (stereo unspecified) > 76.9 µM
CC(=O)c1cc2c(cc1NC(=O)c1ccc(-n3nc(C)cc3C)cc1)OCO2
CC1CCCN(C(=O)CN2CCN(C(=O)c3ccco3)CC2)C1 (stereo unspecified) > 76.9 µM
O=C(CSc1nnc(-c2ccco2)o1)N1c2ccccc2CCc2ccccc21 > 76.9 µM
CCOC(=O)Cc1csc(NC(=O)CSc2nnc(C(C)C)n2C)n1 > 76.9 µM
c1ccc2c(c1)ncn2CCn1cnc2ccccc21 > 76.9 µM
CCOC(=O)N1CCC(NC(=O)C2CCN(S(=O)(=O)c3c(C)noc3C)CC2)CC1 > 76.9 µM
CC1CCN(C(=O)CN(CCc2ccccc2)S(C)(=O)=O)CC1 > 76.9 µM
COc1ccc(OC)c(C2C(C(=O)c3ccc(C)o3)=C(O)C(=O)N2CCCN2CCOCC2)c1 (stereo unspecified) > 76.9 µM
CCOc1ccccc1N(CC(=O)NC1CCCC1)C(=O)CCCC(=O)Nc1ccccn1 > 76.9 µM
CCc1ccccc1NC(=O)CC1S/C(=N\c2nccs2)N(CC)C1=O (stereo unspecified) > 76.9 µM
COCc1[nH]nc2c1C(c1ccccc1OC)C(C#N)=C(N)O2 (stereo unspecified) > 76.9 µM
Cc1c(C(=O)Nn2cnnc2)oc2ccccc12 > 76.9 µM
O=C(CCN1C(=O)c2ccccc2S1(=O)=O)Nc1nc2c(s1)CCCC2 > 76.9 µM
O=C(Nc1ccccc1)OCCNC(=O)c1ccccc1 > 76.9 µM
Cc1ccc(C(=O)Nc2nnn(C)n2)cc1 > 15.4 µM
COc1ccc(CNn2c(C)nc3ccccc3c2=O)cc1 > 76.9 µM
O=S(=O)(Cc1ccccc1)NCc1cccnc1 > 76.9 µM
O=c1sc(Nc2ccccc2)nc2ccsc12 > 76.9 µM
Cc1ccc2c(c1)N(C(=O)CSc1nncn1C)C(C)(C)c1ssc(=S)c1-2 > 76.9 µM
OC(CCCCN1CCCCC1)c1ccccc1 (stereo unspecified) > 76.9 µM
O=C1CC(NC23CC4CC(CC(C4)C2)C3)C(=O)N1c1ccc2c(c1)OCO2 (stereo unspecified) > 76.9 µM
COc1ccc(-c2nnn(CC(=O)N(C3CCCC3)C(C)C(=O)NC3CCCC3)n2)cc1OC (stereo unspecified) > 76.9 µM
NC(=O)C1(N2CCCCC2)CCN(C(=O)c2ccc(C#Cc3ccccc3)o2)CC1 > 76.9 µM
Cc1csc(C(C#N)C(=O)c2ccc(S(=O)(=O)N3CCCC3)cc2)n1 (stereo unspecified) > 76.9 µM
COc1ccccc1C(=O)NCCCN1CCCC1=O > 76.9 µM
COc1cc(C(=O)Nc2c(C)cc(C)cc2C)c(-n2cnnn2)cc1OC > 76.9 µM
O=C(NCc1ccc(Cl)cc1)c1noc2c1CCCCC2 > 76.9 µM
CC(=O)N=C1SC2CS(=O)(=O)CC2N1c1cccc(Cl)c1Cl (stereo unspecified) > 76.9 µM
Cc1ccc(S(=O)(=O)N2CCN(S(=O)(=O)N3CCCCC3)CC2)cc1 > 76.9 µM
Cc1ccc(NC(=O)Nc2ccc(F)cc2)nc1 > 76.9 µM
Cc1ccc(OCc2nnc(NC(=O)Cc3cccs3)s2)cc1 > 76.9 µM
CCOC(=O)NC1(C(F)(F)F)C(=O)NC(C)=C1C(=O)OC (stereo unspecified) > 76.9 µM
NC(=O)CCS(=O)(=O)CCN1CCCCC1 > 76.9 µM
CCOc1ccc(C(C)=O)cc1CSc1nnc(-c2ccoc2C)n1N > 76.9 µM

Potency, active:
Cc1cc(C(=O)CSc2nc3ccccc3o2)c(C)n1C1CC1 13.5 µM
